Measured values published in the supplement of paper PMC9446081.
The campaign covered roughly 39,000 compounds. About 220 (0.56%) showed activity. Some of the results follow.

The molecules below were run on Escherichia coli K-12 BW25113 (assay: relative growth (OD600 normalised to plate interquartile mean) (fraction); higher = less growth inhibition, active = 0.2 or less). Conditions: 50 µM; LB; incubation time: overnight (16-24 h).
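Note: static incubation at 37 °C against the wild-type strain, values averaged over two biological replicates.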

Compound	relative growth
C[C@H]1CCCCO[C@H](CN(C)C(=O)c2ccccc2)[C@@H](C)CN([C@@H](C)CO)C(=O)c2cc(NS(=O)(=O)c3cccs3)ccc2O1	inactive: 1.01
CC1CCc2cc(F)cc3c(=O)c(C(=O)O)cn1c23 (stereo not given)	active: 0.0455
Cc1noc(C)c1S(=O)(=O)N(C)C[C@H]1Oc2ccc(N(C)C)cc2CC(=O)N([C@@H](C)CO)C[C@@H]1C	inactive: 0.998
COc1ccc(S(=O)(=O)N(C)C[C@@H]2Oc3ccc(NC(=O)Nc4cccc5ccccc45)cc3C(=O)N([C@H](C)CO)C[C@H]2C)cc1	inactive: 1.03
COc1ccc(-c2cnc3c(c2)C(=O)N([C@H](C)CO)C[C@H](C)[C@@H](CN(C)C(=O)C2CCOCC2)O3)cc1	inactive: 0.977
C[C@@H]1CN([C@@H](C)CO)C(=O)c2cc(NC(=O)Nc3ccc(F)cc3)ccc2O[C@@H](C)CCCCO[C@@H]1CN(C)C(=O)C1CCCCC1	inactive: 1.01
O=C(C[C@H]1C=C[C@H](NC(=O)C2CC2)[C@H](CO)O1)NCCCN1CCOCC1	inactive: 1.01
C[C@@H]1CN([C@@H](C)CO)C(=O)Cc2cc(NC(=O)C3CC3)ccc2O[C@@H]1CN(C)S(=O)(=O)c1cccs1	inactive: 1.04
C[C@@H]1CCCCO[C@H](CN(C)C(=O)C2CCCCC2)[C@@H](C)CN([C@H](C)CO)C(=O)c2cc(NC(=O)Nc3ccc(C(F)(F)F)cc3)ccc2O1	inactive: 0.999
CCNC(=O)[C@H]1[C@H](CO)[C@H]2Cn3c(ccc(-c4cccc(OC)c4)c3=O)[C@H]2N1S(C)(=O)=O	inactive: 1.02
C[C@H]1CCCCO[C@H](CN(C)Cc2ccccc2)[C@@H](C)CN([C@@H](C)CO)C(=O)c2cc(NC(=O)Nc3ccc4c(c3)OCO4)ccc2O1	inactive: 0.986
C[C@@H]1CCCCO[C@H](CN(C)C(=O)NC2CCCCC2)[C@H](C)CN([C@H](C)CO)C(=O)c2cc(NS(=O)(=O)c3ccc(Cl)cc3)ccc2O1	inactive: 1.02
CC(C)Cc1ccc(/C=C/C=O)cc1	inactive: 0.975
COc1ccc(S(=O)(=O)N(C)C[C@@H]2Oc3c(NS(=O)(=O)c4ccc(C)cc4)cccc3C(=O)N([C@@H](C)CO)C[C@@H]2C)cc1	inactive: 1.02
C[C@@H]1CN([C@H](C)CO)C(=O)c2cc(NC(=O)Cc3ccccc3)ccc2O[C@@H]1CN(C)Cc1ccc(-c2ccccc2)cc1	inactive: 0.961
O=C(CCCCCC(=O)N/N=C/[C@H](O)[C@@H](O)[C@H](O)[C@H](O)CO[C@H]1O[C@H](CO)[C@H](O)[C@H](O)[C@H]1O)NO	inactive: 1
O=S1(=O)C[C@H](NC[C@H]2C[C@@H]3C=C[C@H]2C3)[C@@H](O)C1	inactive: 1.03
C[C@H](CO)N1C[C@H](C)[C@H](CN(C)Cc2ccc(Cl)c(Cl)c2)Oc2ccc(NC(=O)NC3CCCCC3)cc2CC1=O	inactive: 0.999
C[C@H](CO)N1C[C@H](C)[C@@H](CN(C)Cc2ccc3c(c2)OCO3)Oc2ccc(NC(=O)Nc3cccc4ccccc34)cc2CC1=O	inactive: 0.978
CN(C)CC(=O)N[C@H]1CC[C@H](CCn2cc(CN(C)C)nn2)O[C@H]1CO	inactive: 0.995

Compound	relative growth
C[C@H](CO)N1C[C@H](C)[C@@H](CN(C)S(C)(=O)=O)Oc2c(NC(=O)c3nc4ccccc4s3)cccc2C1=O	inactive: 0.988
COCC(=O)Nc1ccc2c(c1)C(=O)N(C)C[C@H](OC)[C@H](C)CN(Cc1cccc(F)c1)[C@@H](C)CO2	inactive: 1.02
CC(CCC(=O)O)C1CCC2C3CCC4CCCCC4(C)C3CCC12C (stereo not given)	inactive: 1.07
Cc1cc(C)n2nc(SCC(=O)O)nc2n1	inactive: 0.954
C=C(CC[C@@H](C)[C@H]1CC[C@@]2(C)C3=C(C[C@H](O)[C@]12C)[C@@]1(C)CC[C@@H](OC(=O)CC(=O)O)C(C)(C)[C@@H]1CC3)[C@@H](C)C(=O)O	inactive: 0.89
COc1ccc(S(=O)(=O)N(C)C[C@@H]2Oc3c(NC(=O)c4cnccn4)cccc3C(=O)N([C@@H](C)CO)C[C@@H]2C)cc1	inactive: 0.977
C=CCOC(=O)[C@H]1[C@@H]2C(=O)O[C@@H](c3ccccc3)[C@@H](c3ccccc3)N2[C@@H](c2ccc(OCCOC(=O)[C@H]3C[C@H]4C(=O)N[C@@H](Cc5ccccc5)C(=O)N4[C@H]3c3cccc(OCCO)c3)cc2)[C@]12C(=O)Nc1ccc(I)cc12	inactive: 1.04
C[C@@H]1CN([C@@H](C)CO)C(=O)c2cc(NS(=O)(=O)c3ccccc3)ccc2O[C@H]1CN(C)S(=O)(=O)c1ccc(F)cc1	inactive: 1.01
C[C@@H]1CN([C@@H](C)CO)C(=O)c2cccc(NC(=O)Nc3cccc4ccccc34)c2O[C@H]1CN(C)C(=O)Nc1ccc(F)cc1	inactive: 1
C[C@@H]1CN([C@@H](C)CO)C(=O)c2cc(NC(=O)Nc3ccc(C(F)(F)F)cc3)ccc2O[C@@H]1CN(C)C(=O)Nc1ccc(C(F)(F)F)cc1	inactive: 0.998
COc1ccc(NC(=O)N(C)C[C@H]2OCCCC[C@@H](C)Oc3ccc(NC(=O)NC4CCCCC4)cc3C(=O)N([C@H](C)CO)C[C@H]2C)cc1	inactive: 1.02
CN(C)CCCNC(=O)C1CCNCC1	inactive: 0.999
CC(C)NC(=O)Nc1ccc2c(c1)C(=O)N([C@@H](C)CO)C[C@@H](C)[C@@H](CN(C)S(C)(=O)=O)OCCCC[C@@H](C)O2	inactive: 1
COCC(=O)N1CC(C)(C)c2cc(-c3csc(NC(=O)c4ccc(F)c(OC(F)(F)F)c4)n3)ccc21	inactive: 1
COc1ccc(S(=O)(=O)Nc2ccc3c(c2)CC(=O)N([C@@H](C)CO)C[C@H](C)[C@H](CN(C)C)O3)cc1	inactive: 0.989
C[C@H](O)C#Cc1ccc2c(c1)O[C@@H](CN(C)C)[C@H](C)CN([C@@H](C)CO)S2(=O)=O	inactive: 0.987
C[C@@H]1CN([C@H](C)CO)C(=O)Cc2cc(NC(=O)Cc3ccccc3)ccc2O[C@H]1CN(C)S(=O)(=O)c1ccccc1	inactive: 0.983
COc1ccc(CN(C)C[C@@H]2Oc3ccc(NS(C)(=O)=O)cc3CC(=O)N([C@@H](C)CO)C[C@@H]2C)cc1	inactive: 0.984
C[C@H]1CN([C@@H](C)CO)C(=O)c2cccc(NS(C)(=O)=O)c2O[C@@H]1CN(C)Cc1ccc2c(c1)OCO2	inactive: 1.04
COc1cc(O)c2c(=O)c3cc(OC)c(OC)cc3oc2c1	inactive: 1.05

Compound	relative growth
CCS(=O)(=O)Nc1ccc2c(c1)C(=O)N(C)C[C@@H](OC)[C@H](C)CN(CCC(F)(F)F)[C@@H](C)CO2	inactive: 0.971
Cc1noc(C)c1S(=O)(=O)Nc1ccc2c(c1)C(=O)N([C@@H](C)CO)C[C@H](C)[C@@H](CN(C)C(=O)Nc1ccc(C(F)(F)F)cc1)OCCCC[C@@H](C)O2	inactive: 1.03
Cc1noc(C)c1NC(=O)Nc1ccc2c(c1)C(=O)N([C@H](C)CO)C[C@H](C)[C@H](CN(C)C(=O)Nc1c(C)noc1C)OCCCC[C@H](C)O2	inactive: 0.999
O=C(OCc1cccc(O)c1O[C@@H]1O[C@H](CO)[C@@H](O)[C@H](O)[C@H]1O)[C@]1(O)C(=O)[C@@H]2C=C[C@H]1c1c2ccc(O)c1O	inactive: 1
COc1ccccc1OCCNCC(O)COc1cccc2[nH]c3ccccc3c12 (stereo not given)	inactive: 0.8
O=C(Cc1ccncc1)Nc1ccc2c(c1)[C@@H]1C[C@@H](CC(=O)N3CCc4ccccc4C3)O[C@H](CO)[C@@H]1O2	inactive: 0.988
C[C@H]1CCCCO[C@H](CN(C)C(=O)Nc2ccccc2)[C@@H](C)CN([C@@H](C)CO)C(=O)c2cc(NC(=O)Nc3ccc(F)cc3)ccc2O1	inactive: 0.969
CS(=O)(=O)N1C[C@H]2CN(Cc3ccncc3)C(=O)[C@@H]2C1	inactive: 0.995
C[C@H](CO)N1C[C@H](C)[C@@H](CN(C)Cc2ccc(Cl)c(Cl)c2)Oc2ccc(NC(=O)C3CCCCC3)cc2CC1=O	inactive: 0.97
COc1ccc(S(=O)(=O)Nc2ccc3c(c2)CC(=O)N([C@@H](C)CO)C[C@H](C)[C@@H](CN(C)C)O3)cc1	inactive: 1
COc1ccc(CN(C)C[C@@H]2OCCCC[C@H](C)Oc3ccc(NC(=O)Nc4ccc(C(F)(F)F)cc4)cc3C(=O)N([C@@H](C)CO)C[C@H]2C)cc1	inactive: 0.97
C[C@@H]1CN([C@@H](C)CO)C(=O)c2cc(NC(=O)c3ccccc3)ccc2O[C@@H](C)CCCCO[C@@H]1CN(C)S(=O)(=O)c1ccc(Cl)cc1	inactive: 1.02
CC(=O)N(O)CCC[C@H]1NC(=O)CNC(=O)CNC(=O)CNC(=O)[C@@H](CCCN(O)C(C)=O)NC(=O)[C@@H](CCCN(O)C(C)=O)NC1=O	inactive: 0.966
CC(C)NC(=O)N[C@@H]1C=C[C@@H](CC(=O)NCCN2CCCC2)O[C@H]1CO	inactive: 0.998
COc1ccc(C(C)=O)c(O)c1	inactive: 0.861
COc1ccc([N+](=O)[O-])cc1CNCCO	inactive: 1.03
O=C(C[C@H]1C=C[C@H](NC(=O)CN2CCOCC2)[C@H](CO)O1)NC1CCC1	inactive: 0.997
C[C@@H]1CN([C@H](C)CO)C(=O)c2cc(NC(=O)CCCN(C)C)ccc2O[C@H]1CN(C)C(=O)Nc1ccccc1	inactive: 0.977
CC(C)NC(=O)N(C)C[C@@H]1Oc2ccc(NC(=O)Cn3cnnn3)cc2C(=O)N([C@@H](C)CO)C[C@H]1C	inactive: 0.98
Cn1c(=O)c2c(nc(N3CCCCC3)n2CCN)n(C)c1=O	inactive: 0.937
